{"sequences": {"note": "By UniProt entry, the sequences of proteins in these tests, tags left out.", "UniProt Q15366": "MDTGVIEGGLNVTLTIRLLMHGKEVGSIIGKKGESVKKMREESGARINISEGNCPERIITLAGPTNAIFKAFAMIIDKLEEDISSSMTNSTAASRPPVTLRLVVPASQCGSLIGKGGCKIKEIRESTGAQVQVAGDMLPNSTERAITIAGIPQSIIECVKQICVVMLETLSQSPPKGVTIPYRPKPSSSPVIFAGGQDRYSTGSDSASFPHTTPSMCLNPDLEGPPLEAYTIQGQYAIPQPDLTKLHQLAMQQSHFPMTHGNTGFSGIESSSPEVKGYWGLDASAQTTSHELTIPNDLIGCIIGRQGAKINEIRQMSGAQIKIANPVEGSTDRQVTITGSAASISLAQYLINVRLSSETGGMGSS"}, "source": "paper PMC8943206", "binders": {"B1": {"name": "TBK1, transfected in HEK293T (enzyme, UniProt Q9UHD2 1-729)", "chain": "MQSTSNHLWLLSDILGQGATANVFRGRHKKTGDLFAIKVFNNISFLRPVDVQMREFEVLKKLNHKNIVKLFAIEEETTTRHKVLIMEFCPCGSLYTVLEEPSNAYGLPESEFLIVLRDVVGGMNHLRENGIVHRDIKPGNIMRVIGEDGQSVYKLTDFGAARELEDDEQFVSLYGTEEYLHPDMYERAVLRKDHQKKYGATVDLWSIGVTFYHAATGSLPFRPFEGPRRNKEVMYKIITGKPSGAISGVQKAENGPIDWSGDMPVSCSLSRGLQVLLTPVLANILEADQEKCWGFDQFFAETSDILHRMVIHVFSLQQMTAHKIYIHSYNTATIFHELVYKQTKIISSNQELIYEGRRLVLEPGRLAQHFPKTTEENPIFVVSREPLNTIGLIYEKISLPKVHPRYDLDGDASMAKAITGVVCYACRIASTLLLYQELMRKGIRWLIELIKDDYNETVHKKTEVVITLDFCIRNIEKTVKVYEKLMKINLEAAELGEISDIHTKLLRLSSSQGTIETSLQDIDSRLSPGGSLADAWAHQEGTHPKDRNVEKLQVLLNCMTEIYYQFKKDKAERRLAYNEEQIHKFDKQKLYYHATKAMTHFTDECVKKYEAFLNKSEEWIRKMLHLRKQLLSLTNQCFDIEEEVSKYQEYTNELQETLPQKMFTASSGIKHTMTPIYPSSNTLVEMTLGMKKLKEEMEGVVKELAENNHILERFGSLTMDGGLRNVDCL"}, "B2": {"name": "IRF3, transfected in HEK293T (protein, UniProt Q14653 1-427)", "chain": "MGTPKPRILPWLVSQLDLGQLEGVAWVNKSRTRFRIPWKHGLRQDAQQEDFGIFQAWAEATGAYVPGRDKPDLPTWKRNFRSALNRKEGLRLAEDRSKDPHDPHKIYEFVNSGVGDFSQPDTSPDTNGGGSTSDTQEDILDELLGNMVLAPLPDPGPPSLAVAPEPCPQPLRSPSLDNPTPFPNLGPSENPLKRLLVPGEEWEFEVTAFYRGRQVFQQTISCPEGLRLVGSEVGDRTLPGWPVTLPDPGMSLTDRGVMSYVRHVLSCLGGGLALWRAGQWLWAQRLGHCHTYWAVSEELLPNSGHGPDGEVPKDKEGGVFDLGPFIVDLITFTEGSGRSPRYALWFCVGESWPQDQPWTKRLVMVKVVPTCLRALVEMARVGGASSLENTVDLHISNSHPLSLTSDQYKAYLQDLVEGMDFQGPGES"}, "B3": {"name": "TBK1, endogenous in THP-1 (enzyme, UniProt Q9UHD2 1-729)", "chain": "B1 chain"}, "B4": {"name": "IRF3, endogenous in THP-1 (protein, UniProt Q14653 1-427)", "chain": "B2 chain"}}, "key": {"[1]": {"biological_target": "PCBP2 full-length (FL), transfected in HEK293T (tag not told) (human) (UniProt Q15366)", "assay": "co-IP"}, "[2]": {"biological_target": "PCBP2, endogenous in THP-1 (human (endogenous in THP-1)) (UniProt Q15366)", "assay": "co-IP; endogenous; THP-1 cells with or without HT-DNA (2 μg/ml); PCBP2 antibody or control IgG, protein A/G beads; immunoblot"}}, "note": "These are yes or no findings as the source states them, for the method shown. Binding seen in cells or lysates may run through a third protein."}
{"binder": "B1", "values": [{"measurement": "binding", "setting": "[1]", "value": "no binding"}]}
{"binder": "B2", "values": [{"measurement": "binding", "setting": "[1]", "value": "no binding"}]}
{"binder": "B3", "values": [{"measurement": "binding", "setting": "[2]", "value": "no binding"}]}
{"binder": "B4", "values": [{"measurement": "binding", "setting": "[2]", "value": "no binding"}]}
